Measured values published in the supplement of paper PMC8183993.
Where a name gives a salt, the structure may show the parent alone. ± gives the standard deviation of the averaged measurements. Over roughly 3,100 compounds, “mean cytoplasmic OPP incorporation (global translation) relative to DMSO” has its median near 100; the lowest 2% begin near 56. This is one part of the list.

system: U2OS; assay: mean cytoplasmic OPP incorporation (global translation) relative to DMSO (% of DMSO); higher = more protein synthesis; conditions: 10 µM; 24 h
Procedure: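 Primary image-based screen in U2OS cells: compounds at 10 uM for 24 h, then a 1 h o-propargyl-puromycin (OPP) pulse, click labelling, and high-throughput microscopy. Mean cytoplasmic OPP intensity and nuclei count were normalised to DMSO wells within each plate (DMSO = 100) and averaged over triplicate plates.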

| SMILES | mean cytoplasmic OPP incorporation |
| --- | --- |
| COc1cc(CCc2cc(NC(=O)c3ccc(N4CC(C)NC(C)C4)cc3)n[nH]2)cc(OC)c1 (configuration not stated) | 95 ± 1 |
| C[C@@H]1CC[C@@]2(OC1)O[C@H]1C[C@H]3[C@@H]4CC=C5C[C@@H](O)CC[C@]5(C)[C@H]4CC[C@]3(C)[C@H]1[C@@H]2C [Diosgenin] | 105 |
| O=C(NCCCCCCNC(=O)ON=C1CCCCC1)ON=C1CCCCC1 | 102 |
| CC(C)[C@H](O)C(=O)N[C@@H](C)C(=O)N[C@@H]1C(=O)N(C)CCc2ccccc21 | 100 |
| C=CCN1CCc2cc(O)c(O)cc2C(c2ccccc2)C1 (configuration not stated) | 100 |
| OCCN1CCN(CC/C=C2/c3ccccc3Sc3ccc(Cl)cc32)CC1 [Zuclopenthixol dihydrochloride] | 117 |
| Cc1[nH]nc2ccc(-c3cncc(OC[C@@H](N)Cc4ccccc4)c3)cc12 | 61.6 |
| CCC(=O)O[C@]1(C(=O)SCF)[C@H](C)C[C@H]2[C@@H]3C[C@H](F)C4=CC(=O)C=C[C@]4(C)[C@@]3(F)[C@@H](O)C[C@@]21C [Fluticasone propionate] | 108 ± 7.6 |
| CCC(=O)O[C@]1(C(=O)SCF)[C@H](C)C[C@H]2[C@@H]3C[C@H](F)C4=CC(=O)C=C[C@]4(C)[C@@]3(F)[C@@H](O)C[C@@]21C [Fluticasone propionate (Flonase, Veramyst)] | 101 |
| NS(=O)(=O)c1nn2cc(-c3ccccc3)nc2s1 | 99.3 |
| Nc1ccc(/N=N/c2ccccc2)c(N)n1 [Phenazopyridine hydrochloride] | 101 |
| CN(C)CCOC(=O)C(c1ccccc1)C1(O)CCCC1 (configuration not stated) [Cyclopentolate hydrochloride] | 99.2 |
| CCc1cc(Cl)c(OC)c(C(=O)NC[C@@H]2CCCN2CC)c1O [Eticlopride hydrochloride] | 102 |
| O=[N+]([O-])c1cn2c(n1)OC[C@@H](OCc1ccc(OC(F)(F)F)cc1)C2 | 96.3 |
| Cn1nnc2c(C(N)=O)ncn2c1=O [Temozolomide] | 104 ± 4.3 |
| Cn1nnc2c(C(N)=O)ncn2c1=O [Methazolastone] | 101 |
| CN1[C@@H]2CC[C@H]1C[C@@H](OC(=O)C(O)c1ccccc1)C2 (mixture of isomers) [Homatropine hydrobromide (R,S)] | 98.6 |
| C[C@]12CC[C@H](O)CC1=CC[C@@H]1[C@@H]2CC[C@]2(C)C(c3cccnc3)=CC[C@@H]12 [Abiraterone (CB-7598)] | 99.2 |
| COc1ccc(CCC(=O)c2c(O)cc(O[C@@H]3O[C@H](CO)[C@@H](O)[C@H](O)[C@H]3O[C@@H]3O[C@@H](C)[C@H](O)[C@@H](O)[C@H]3O)cc2O)cc1O [Neohesperidin dihydrochalcone (Nhdc)] | 99.1 |
| CC(C)(C)CC(C)(C)c1ccc(OCCOCC[N+](C)(C)Cc2ccccc2)cc1 [Benzethonium chloride] | 103 |
| CCCCOc1ccc(C(=O)CCN2CCCCC2)cc1 [Dyclonine hydrochloride] | 99.4 |
| COc1ccc(CCC(=O)Nc2nc3ccc(Cl)cc3s2)cc1OC | 99.8 |
| COc1ccc(-c2cc3nccn3c(Nc3ncccc3C(N)=O)n2)cc1OC | 93.9 |
| C=C1C(=O)O[C@H]2[C@H]1CC/C(C)=C/CC[C@@]1(C)O[C@@H]21 [Parthenolide] | 87.6 ± 14 |

| SMILES | mean cytoplasmic OPP incorporation |
| --- | --- |
| Nc1nc(N)c2nc(-c3ccccc3)c(N)nc2n1 [Triamterene] | 94.4 |
| C=C1CC[C@H](O)C/C1=C/C=C1\CCC[C@]2(C)[C@@H]([C@H](C)/C=C/[C@H](C)C(C)C)CC[C@@H]12 [Vitamin D2 (Ergocalciferol)] | 99.5 |
| C=CC[N+]1([C@H]2C[C@H]3[C@@H]4CC[C@H]5C[C@H](O)[C@@H](N6CCOCC6)C[C@]5(C)[C@H]4CC[C@]3(C)[C@H]2OC(C)=O)CCCC1 [Rocuronium bromide] | 101 |
| CC(C)(C)NC(=O)[C@H]1CC[C@H]2[C@@H]3CC[C@H]4NC(=O)C=C[C@]4(C)[C@H]3CC[C@]12C [Finasteride] | 102 ± 4.5 |
| Cc1ccc(C(=O)N(CCCN)[C@@H](c2oc3cc(Cl)ccc3c(=O)c2Cc2ccccc2)C(C)C)cc1 | 327 |
| C[N+](C)(C)C[C@H](O)CC(=O)[O-] [L-carnitine (Levocarnitine)] | 104 |
| O=C(O)c1cc(O)ccc1O [Gentisic acid] | 101 |
| CC(C)C(=O)c1c(C(C)C)nn2ccccc12 [Ibudilast] | 90.3 ± 1.4 |
| C[N+](C)(C)CC(O)CC(=O)[O-] (racemic) [DL-Carnitine HCl] | 97.4 |
| CC(CN(C)C)CN1c2ccccc2CCc2ccccc21 (configuration not stated) [Trimipramine maleate salt] | 106 |
| COP(=O)(OC)OC(c1ccc(Cl)cc1)P(=O)(OC)OC (configuration not stated) | 91.5 |
| Cn1c(N2CCCCS2(=O)=O)nc(C(=O)NCc2ccc(F)cc2)c(O)c1=O | 106 |
| COC(=O)[C@H]1[C@H]2C[C@H]3c4[nH]c5ccccc5c4CCN3C[C@H]2CC[C@@H]1O [Rauwolscine hydrochloride] | 100 |
| CC(C)NCC(O)COc1cccc2[nH]ccc12 (configuration not stated) [Pindolol] | 99.2 ± 3.2 |
| OC(CCN1CCCC1)(c1ccccc1)C1CCCCC1 (configuration not stated) [Procyclidine hydrochloride] | 106 |
| C[C@H](CS)C(=O)N1CCC[C@H]1C(=O)O [Captopril] | 97.6 ± 2.7 |
| CN(Cc1cc(Br)cc(Br)c1N)C1CCCCC1 [Bromhexine hydrochloride] | 108 |
| Cn1cnc2c(F)c(Nc3ccc(Br)cc3Cl)c(C(=O)NOCCO)cc21 [AZD6244 (Selumetinib)] | 88.1 |
| Nc1nc(N)c2nc(-c3cccc(O)c3)c(-c3cccc(O)c3)nc2n1 | 104 |
| CC1(C)O[C@@H]2C[C@H]3[C@@H]4C[C@H](F)C5=CC(=O)C=C[C@]5(C)[C@H]4[C@@H](O)C[C@]3(C)[C@]2(C(=O)CO)O1 [Flunisolide] | 110 |
| O=C(/C=C/c1cccnc1)NCCCCC1CCN(C(=O)c2ccccc2)CC1 | 105 |
| NCCc1ccc(O)c(O)c1 [Dopamine hydrochloride] | 104 |
| N#CC1(c2ccc(NC(=O)c3cccnc3NCc3ccncc3)cc2)CCCC1 [Apatinib (YN968D1)] | 114 |
